# Source: US9353185B2, “Antibodies” (Affitech Research AS, priority 2010, dated 2016)
# B1: C-9P21: human anti-CXCR4 antibody; scFv SEQ ID NO: 35; IgG1/kappa heavy chain SEQ ID NO: 108, light chain SEQ ID NO: 109 (antibody)
# heavy: QVQLQESGGGLVHPGGSLRLSCAASGFTFSSYWMHWVRQAPGKGLVWVSRINSDGSSTSYADSVKGRFTISRDNAKNTLYLQMNSLRAEDTAVYYCARKILGVGARSRRYFDYWGQGTMVTVSS[human IgG1 constant region left out]
# light: ETTLTQSPGTLSLSPGERATLSCRASQSVVSNYLAWYQQKPGQAPRLLISGASNRATGISDRFSGSGSGADFTLTISRVEPEDSAVYYCQQFDKSTWTFGQGTKVEIKRTVAAPSVFIFPPSDEQLKSGTASVVCLLNNFYPREAKVQWKVDNALQSGNSQESVTEQDSKDSTYSLSSTLTLSKADYEKHKVYACEVTHQGLSSPVTKSFNRGEC
# modifications: antibody sequence
# Target: T1, CXCR4 (Homo sapiens, UniProt P61073)
# T1 construct: CRL-1596 (Ramos); host or cells: Ramos, Jurkat 6E-1, CCRF-CEM
# Assay: Inhibition of SDF-1α ligand-induced migration of CCRF-CEM cells (Boyden chamber)
# Type: cell-based
# Description: The anti-GFP scFv fragment was used as a negative control and anti-cMyc antibody was used for cross-linking both scFvs to mimic the effect of the antibodies in IgG format.
# CCRF-CEM cells were maintained as described above.
# CCRF-CEM target cells were sedimented by centrifugation and washed twice in RPMI-1640 culture medium without FCS. The cell density was then adjusted to 1×10^6 cells/ml and 60 ml of this suspension was mixed with 38 μl BATDA [bis(acetoxymethyl) 2,2′:6′,2″-terpyridine-6,6″-dicarboxylate] (Perkin Elmer, Waltham, Mass.). The cells were incubated with BATDA at 37° C. for 20 min with mixing by gently inverting the vessel every 10 min. The cells were washed three times in RPMI-1640 with 20% FCS, and then re-suspended in RPMI-1640/20% FCS to a final density 2×10^7 cells/ml. […] Anti-GFP scFv was used at 32 μg/ml as a negative control in combination with 20 μg/ml anti-cMyc antibody. In parallel, 30 μl of RPMI containing 0.15 nM SDF-1α ligand was added into the lower compartment of a ChemoTX 96 well Boyden chamber plate (Neuro Probe, Gaithersburg, Md.). 50 μl of the antibody-coated BATDA-labelled cells were then added to the upper compartment of the ChemoTX 96 chamber plate and incubated in presence at 37° C. for 2.5 hr. The cells above the filter were then removed and the filter was washed with PBS followed by centrifugation of the plate to collect all the cells in the lower chamber before removing the filter. The plate was then inverted on the top of a V-shaped plate followed by centrifugation. […] The samples were transferred to a black 96-well microtiter plate, mixed with 200 μl Europium Solution (Perkin Elmer), and analyzed for fluorescence (excitation at 340 nm, emission at 613 nm, lag-time 0.4 ms and integration time 0.4 ms) using a TECAN M200 plate reader. For each antibody concentration, the ratio of signals in presence/absence of scFv and the percentage of migration inhibition was calculated. The data were plotted and analysed by non-linear regression curve fit using the “log(inhibitor) vs. response” model of software Prism (GraphPad).
# T1 sequence (P61073 whole entry): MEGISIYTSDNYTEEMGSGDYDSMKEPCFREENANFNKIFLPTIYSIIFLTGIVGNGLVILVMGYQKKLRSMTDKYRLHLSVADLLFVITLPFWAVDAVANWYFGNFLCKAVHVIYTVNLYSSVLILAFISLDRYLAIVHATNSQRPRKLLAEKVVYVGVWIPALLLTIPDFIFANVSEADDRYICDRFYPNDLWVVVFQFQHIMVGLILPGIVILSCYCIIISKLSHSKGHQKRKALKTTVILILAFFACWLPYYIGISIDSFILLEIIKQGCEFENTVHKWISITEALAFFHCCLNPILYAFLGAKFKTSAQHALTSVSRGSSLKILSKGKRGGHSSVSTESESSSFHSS
molecule,measurement,setting,value
B1,inhibition of cell migration,scFv concentration 20 μg/ml (0.7 μM),100%
same,IC50 (antibody concentration leading to 50% inhibition of cell migration),"scFv cross-linked with anti-cMyc antibody, 0.15 nM SDF-1α",2.9 µg/mL
same,IC50,"scFv format, molar equivalent of 2.9 μg/ml",~100 nM
